The supplement of paper PMC7125110
± gives the standard error. This sample is rich in variants without activity.

B1: glmS ribozyme (parent)
chain: AUAAAAGCGCCAGAACUACAGAAAUGUAGUUGACGAGGAGGAGGUUUAUCGAAUUUUCGGCGGAUGCCUCCAAA

Variants of: B1
Test: self-cleavage kobs at 2500 uM GlcN6P; higher = faster cleavage; RNA array
Conditions: with glucosamine-6-phosphate
How it was run: (§1)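 Glucosamine-6-phosphate in HEPES/KCl/Mg(OAc)2 buffer, at 40 μM to 10 mM, was flowed over barcoded ribozyme variants transcribed in situ by E. coli RNA polymerase on sequenced MiSeq chips. Tracking was through a hybridised Cy3 probe at 37 °C. kobs, kcat and KM came from exponential decay fits and weighted Michaelis–Menten fits of normalised per-tile medians.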

G9U A39G G59C and G9U A12U C68U cannot be ordered by “self-cleavage kobs at 2500 uM GlcN6P” value: < 1e-05 s⁻¹ for the first, < 1e-05 s⁻¹ for the second.

C8U G13A A15G and G9A G37C U55C A64U C67U C71A cannot be ordered by “self-cleavage kobs at 2500 uM GlcN6P” value: < 1e-05 s⁻¹ for the first, < 1e-05 s⁻¹ for the second.

C10U A33U A53C and G9U A52C A53G cannot be ordered by “self-cleavage kobs at 2500 uM GlcN6P” value: < 1e-05 s⁻¹ for the first, < 1e-05 s⁻¹ for the second.

G9C G38U G41U U65A and C10G U46A G51C cannot be ordered by “self-cleavage kobs at 2500 uM GlcN6P” value: < 1e-05 s⁻¹ for the first, < 1e-05 s⁻¹ for the second.

C10U G40U U47A G51U C61U and C10U A36U G51C A53C cannot be ordered by “self-cleavage kobs at 2500 uM GlcN6P” value: < 1e-05 s⁻¹ for the first, < 1e-05 s⁻¹ for the second.

C8U G41U C61A A64C and C8U A15C C16U U30G A53C U65G cannot be ordered by “self-cleavage kobs at 2500 uM GlcN6P” value: < 1e-05 s⁻¹ for the first, < 1e-05 s⁻¹ for the second.

G9C G26U and C11A C34A A42C C70A cannot be ordered by “self-cleavage kobs at 2500 uM GlcN6P” value: < 1e-05 s⁻¹ for the first, < 1e-05 s⁻¹ for the second.

C10U G43U A64G and C10U A15C G60U C67U cannot be ordered by “self-cleavage kobs at 2500 uM GlcN6P” value: < 1e-05 s⁻¹ for the first, < 1e-05 s⁻¹ for the second.

G9C C16A C34A G44C A64G and C8U A39C G59U cannot be ordered by “self-cleavage kobs at 2500 uM GlcN6P” value: < 1e-05 s⁻¹ for the first, < 1e-05 s⁻¹ for the second.

G9C U31C G37U G66C C71G and G9U U54G cannot be ordered by “self-cleavage kobs at 2500 uM GlcN6P” value: < 1e-05 s⁻¹ for the first, < 1e-05 s⁻¹ for the second.

C8U G35U U45C A53U U56G G63A U65G C71U and G9U G38U cannot be ordered by “self-cleavage kobs at 2500 uM GlcN6P” value: < 1e-05 s⁻¹ for the first, < 1e-05 s⁻¹ for the second.

C11A G13A G29U G32A G35A C67U C68G and C11G A12C A42C G66U U69C cannot be ordered by “self-cleavage kobs at 2500 uM GlcN6P” value: < 1e-05 s⁻¹ for the first, < 1e-05 s⁻¹ for the second.

Compared with C10U G29U G38A, C10U C16U A33C G41A G62C is lower in “self-cleavage kobs at 2500 uM GlcN6P” value: 0.00158 ± 0.0007 s⁻¹ for the first, < 1e-05 s⁻¹ for the second.

C8U C16G G29C and C8U C34U U55G cannot be ordered by “self-cleavage kobs at 2500 uM GlcN6P” value: < 1e-05 s⁻¹ for the first, < 1e-05 s⁻¹ for the second.

G9U U49C C50G and G9A U31G G40C cannot be ordered by “self-cleavage kobs at 2500 uM GlcN6P” value: < 1e-05 s⁻¹ for the first, < 1e-05 s⁻¹ for the second.

G9C A33C G37A C67U and G9C G13A cannot be ordered by “self-cleavage kobs at 2500 uM GlcN6P” value: < 1e-05 s⁻¹ for the first, < 1e-05 s⁻¹ for the second.

C10A A12U C50U G59C and G9C A36C G38U cannot be ordered by “self-cleavage kobs at 2500 uM GlcN6P” value: < 1e-05 s⁻¹ for the first, < 1e-05 s⁻¹ for the second.

C11A A36G A42G A52G G59U C61U C67G and C10U A15G G44U C50G cannot be ordered by “self-cleavage kobs at 2500 uM GlcN6P” value: < 1e-05 s⁻¹ for the first, < 1e-05 s⁻¹ for the second.

C10A A33U G37C A53C C61U G63C and G9C G32A A36C C67U cannot be ordered by “self-cleavage kobs at 2500 uM GlcN6P” value: < 1e-05 s⁻¹ for the first, < 1e-05 s⁻¹ for the second.

C10U G13C U31A G51U G63U G66U and C10A U54C G59U C67U cannot be ordered by “self-cleavage kobs at 2500 uM GlcN6P” value: < 1e-05 s⁻¹ for the first, < 1e-05 s⁻¹ for the second.

C10U G32C U46C C71G and C10A C11A A39C cannot be ordered by “self-cleavage kobs at 2500 uM GlcN6P” value: < 1e-05 s⁻¹ for the first, < 1e-05 s⁻¹ for the second.

C8U G60U C70G and C10A A12C G35A C67G cannot be ordered by “self-cleavage kobs at 2500 uM GlcN6P” value: < 1e-05 s⁻¹ for the first, < 1e-05 s⁻¹ for the second.

C8U U57A U69G and C10G C11A A14G U30G cannot be ordered by “self-cleavage kobs at 2500 uM GlcN6P” value: < 1e-05 s⁻¹ for the first, < 1e-05 s⁻¹ for the second.

C8U C50U U54A C70G and C10G G40C G59U cannot be ordered by “self-cleavage kobs at 2500 uM GlcN6P” value: < 1e-05 s⁻¹ for the first, < 1e-05 s⁻¹ for the second.

C10A C11G G51A and C8U U56G A64G cannot be ordered by “self-cleavage kobs at 2500 uM GlcN6P” value: < 1e-05 s⁻¹ for the first, < 1e-05 s⁻¹ for the second.

C8U C10U A48G G60C and C10A G35A U47C U65A cannot be ordered by “self-cleavage kobs at 2500 uM GlcN6P” value: < 1e-05 s⁻¹ for the first, < 1e-05 s⁻¹ for the second.

G9C A12C A14G U31C A36U G44U and C10U C16A A48U U65C cannot be ordered by “self-cleavage kobs at 2500 uM GlcN6P” value: < 1e-05 s⁻¹ for the first, < 1e-05 s⁻¹ for the second.

C11A U31C G40C A53C and G9A G44U C61U cannot be ordered by “self-cleavage kobs at 2500 uM GlcN6P” value: < 1e-05 s⁻¹ for the first, < 1e-05 s⁻¹ for the second.

G9A A15C A48U G63C C67U and C10A G32C A33U C71A cannot be ordered by “self-cleavage kobs at 2500 uM GlcN6P” value: < 1e-05 s⁻¹ for the first, < 1e-05 s⁻¹ for the second.

C10U U30A G43C U46A U54C C67A and C10A A33G C34G G63U C70G cannot be ordered by “self-cleavage kobs at 2500 uM GlcN6P” value: < 1e-05 s⁻¹ for the first, < 1e-05 s⁻¹ for the second.

G9U C16G G35U A36C U56C G59U and G9C A14U G51A cannot be ordered by “self-cleavage kobs at 2500 uM GlcN6P” value: < 1e-05 s⁻¹ for the first, < 1e-05 s⁻¹ for the second.

Going from G9U A39G G44C C67G to C10A A64C C67G, the “self-cleavage kobs at 2500 uM GlcN6P” value rises from < 1e-05 s⁻¹ to 8.61e-05 ± 3.1e-05 s⁻¹.

G9A C16A U55G and G9U C10U C67U cannot be ordered by “self-cleavage kobs at 2500 uM GlcN6P” value: < 1e-05 s⁻¹ for the first, < 1e-05 s⁻¹ for the second.

G9A A12U A42G G59U and G9A G59U C68G cannot be ordered by “self-cleavage kobs at 2500 uM GlcN6P” value: < 1e-05 s⁻¹ for the first, < 1e-05 s⁻¹ for the second.

G9A C11U G13U C34A and C10A U31C G38U cannot be ordered by “self-cleavage kobs at 2500 uM GlcN6P” value: < 1e-05 s⁻¹ for the first, < 1e-05 s⁻¹ for the second.

C10U G29C C61U and C10A G29C A42U A52U cannot be ordered by “self-cleavage kobs at 2500 uM GlcN6P” value: < 1e-05 s⁻¹ for the first, < 1e-05 s⁻¹ for the second.

C10G G44U C50G and C8U C11G G13C cannot be ordered by “self-cleavage kobs at 2500 uM GlcN6P” value: < 1e-05 s⁻¹ for the first, < 1e-05 s⁻¹ for the second.

G9A A12C G59C and C11A U31A A33G cannot be ordered by “self-cleavage kobs at 2500 uM GlcN6P” value: < 1e-05 s⁻¹ for the first, < 1e-05 s⁻¹ for the second.

Going from C8U C10U G13U G29C C58U C61A C67A to C10A G35A G60U C71A, the “self-cleavage kobs at 2500 uM GlcN6P” value falls from 0.000532 ± 0.00015 s⁻¹ to < 1e-05 s⁻¹.

G9A A48U G66C and G9A A12C C58A cannot be ordered by “self-cleavage kobs at 2500 uM GlcN6P” value: < 1e-05 s⁻¹ for the first, < 1e-05 s⁻¹ for the second.

First: C10U A12U A53U
Second: G9U A15C G35A G66C C71G
The “self-cleavage kobs at 2500 uM GlcN6P” value of the first is higher: 4.13e-05 ± 1.7e-05 s⁻¹ for the first, < 1e-05 s⁻¹ for the second.

With C8U A42G G43U U49G the “self-cleavage kobs at 2500 uM GlcN6P” value was < 1e-05 s⁻¹.

Variants of: B1
Test: self-cleavage kobs at 10000 uM GlcN6P; higher = faster cleavage; RNA array
Conditions: with glucosamine-6-phosphate
How it was run: as §1

C8U G35U U45C A53U U56G G63A U65G C71U and G9U U49C C50G cannot be ordered by “self-cleavage kobs at 10000 uM GlcN6P” value: < 1e-05 s⁻¹ for the first, < 1e-05 s⁻¹ for the second.

First: G9C G13A
Second: C8U U57A U69G
The “self-cleavage kobs at 10000 uM GlcN6P” value of the first is lower: < 1e-05 s⁻¹ for the first, 0.000575 ± 0.00016 s⁻¹ for the second.
